In PubChem BioAssay AID2107 (National Center for Advancing Translational Sciences (NCATS), 2009):
Hit rate of the full screen: of about 240,000 compounds, about 20 (0.008%) were called active. Inconclusive results, whose numbers are uncertain, are shown with a selection of clear calls. The call rests on the fitted dose curve; in most records, active means well fitted inhibition curve with a large enough effect; inconclusive means small, poorly fitted or top-dose-only effect, or effect the other way; inactive means flat fitted curve, though single readings scatter. Potencies of inconclusive entries are left out as doubtful fits.

molecular target: Alpha-galactosidase A (Homo sapiens) (UniProt P06280); experiment: qHTS Assay for Inhibitors and Activators of Human alpha-Galactosidase From Spleen Homogenate; conditions: 4MU-alpha-Gal fluorescence, 40 min; activity change, negative = inhibition: at 80 µM (top of the series);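 on activity change, negative = inhibition: 0% = enzyme with vehicle and -100% = no enzyme basal signal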
Procedure, shortened: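 qHTS titration in buffer at pH 5.0. Alpha-galactosidase activity in spleen homogenate was measured via 4-methylumbelliferone release from 1 mM fluorogenic substrate after 40 min at 37C and a pH 10 stop. AC50 came from Hill fits of control-normalized data.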
Potency means the concentration at half of the fitted maximal effect; tags describe the fitted curve by direction and shape.

Sequence of UniProt P06280 (P06280 whole entry, looked up): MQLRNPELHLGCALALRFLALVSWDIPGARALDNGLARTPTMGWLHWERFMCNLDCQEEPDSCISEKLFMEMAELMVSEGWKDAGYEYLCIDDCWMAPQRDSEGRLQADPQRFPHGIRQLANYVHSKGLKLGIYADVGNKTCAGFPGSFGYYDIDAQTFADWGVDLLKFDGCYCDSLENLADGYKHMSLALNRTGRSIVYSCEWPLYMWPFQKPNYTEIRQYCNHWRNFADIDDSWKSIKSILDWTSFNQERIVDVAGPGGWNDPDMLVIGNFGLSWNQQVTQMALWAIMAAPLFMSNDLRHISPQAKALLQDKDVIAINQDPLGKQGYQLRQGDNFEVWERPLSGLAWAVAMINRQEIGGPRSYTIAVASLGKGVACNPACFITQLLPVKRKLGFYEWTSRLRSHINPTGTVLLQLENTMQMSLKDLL

Which “activity change, negative = inhibition” value does the source give for `CCOC(=O)CN(C)C(=O)C1CC(CO[Si](C)(C)C(C)(C)C)=CN1C(=O)OC(C)(C)C` (stereo not given) here?
Its value is inactive: 5.85%.

How did the Potency turn out when `OC[C@@H]1[C@@H](c2ccccc2)C(c2ccccc2)=NN1c1ccccc1` was run?
Its Potency is inconclusive [activator, partial curve].

For `c1csc(C2Nc3ccccc3-c3nc4ccccc4n32)c1` (stereo not given), which Potency is on record?
The Potency was inconclusive [activator, single point].

How did the “activity change, negative = inhibition” value turn out when `O=C(/C=C/c1c(C(=O)O)[nH]c2cc(Cl)cc(Cl)c12)Nc1ccccc1` was run?
The value was inactive: 3.76%.

Which Potency does the source give for `CC(OC(=O)c1cc2sccc2n1C)C(=O)NCc1ccc2c(c1)OCO2` (stereo not given) here?
The Potency was inconclusive [inhibitor, single point].

With `COCC(=O)N1CCC2(CC1)CCN(C(=O)NC(C)C)CC2` as the compound, how does the “activity change, negative = inhibition” value read?
Its value is inactive: 3.36%.

`Cc1cc(=O)n2cccc(O)c2n1` was tested. Which Potency did it give?
Its Potency is inconclusive [activator, partial curve].

For `Cc1ccc(-c2cc(C(F)(F)F)c(C#N)c(=O)[nH]2)cc1`, which Potency is on record?
Its Potency is inconclusive [activator, partial curve].

With `Cc1c(Cc2ccccc2)c(=O)oc2cc(O)ccc12` as the compound, how does the Potency read?
The Potency was inconclusive [activator, partial curve].

With `O=C(c1ccc2c(=O)n(-c3ccccc3)c(=O)[nH]c2c1)N1CCCCC1` as the compound, how does the Potency read?
Its Potency is inconclusive [activator, partial curve].

How did the “activity change, negative = inhibition” value turn out when `Cc1ccc(-c2cc(C(=O)N/N=C/c3c(C)nn(-c4ccccc4)c3C)n[nH]2)s1` was run?
Its value is inactive: 1.26%.

`CCOC(=O)CCc1c(C)nc2cc(C3CCCN(C(=O)OC(C)(C)C)C3)[nH]n2c1=O` (stereo not given) was tested. Which Potency did it give?
Its Potency is inconclusive [inhibitor, single point].

For `O=C(CC1NCCNC1=O)OCc1ccccc1` (stereo not given), which Potency is on record?
Its Potency is inconclusive [inhibitor, single point].

`C[C@H]1CS(=O)(=O)CCN1/N=C\c1ccc([N+](=O)[O-])o1` was tested. Which “activity change, negative = inhibition” value did it give?
The value was inactive: 2.46% [at 29.1 µM].

`COc1ccc(C(C)=O)cc1COc1ncnc2ccccc12` was tested. Which “activity change, negative = inhibition” value did it give?
The value was inactive: 4.1%.

`COc1ccc2[nH]c3c(=O)n(CCCCCC(=O)NCCC(C)C)c(=S)[nH]c3c2c1` was tested. Which Potency did it give?
The Potency was inconclusive [activator, single point].

With `CCCCC1OC2(C)OC(=N)C1(C#N)C(C#N)(C#N)C2c1ccccc1` (stereo not given) as the compound, how does the Potency read?
Its Potency is inconclusive [activator, single point].

With `Cc1ccc(-n2c(C)cc(/C=N/NC(=O)CC3(C)OCCO3)c2C)c(C)c1` as the compound, how does the “activity change, negative = inhibition” value read?
Its value is inactive: -4.9%.

How did the Potency turn out when `CCOC(=O)c1cc(CC)sc1NC(=O)COc1ccc2c(C)cc(=O)oc2c1` was run?
The Potency was inconclusive [activator, single point].

`COc1nccnc1NS(=O)(=O)c1ccc(N/C=C2\CCCCC2=O)cc1` was tested. Which “activity change, negative = inhibition” value did it give?
Its value is inactive: -9.35%.

Which “activity change, negative = inhibition” value does the source give for `O=C1c2sc3nc4ccccc4n3c2C(=O)N1c1ccccc1Cl` here?
The value was inactive: 8.03%.

How did the Potency turn out when `O=c1[nH]c(NCCCO)nc2c1C1(CCCC1)Cc1ccccc1-2` was run?
The Potency was inconclusive [activator, single point].

How did the Potency turn out when `O=c1[nH]c2ccccc2nc1-c1cccs1` was run?
Its Potency is inconclusive [activator, single point].

For `COc1cccc(OC)c1C(=O)Nc1ccc(N2CCN(S(C)(=O)=O)CC2)cc1`, which Potency is on record?
Its Potency is inconclusive [inhibitor, single point].

With `Nc1nc2ncc(CNc3ccc(C(=O)NC(CCC(=O)O)C(=O)O)cc3)nc2c(=O)[nH]1` (stereo not given) as the compound, how does the Potency read?
Its Potency is inconclusive [activator, single point].

How did the Potency turn out when `CCCCCCCCCCCCC/C=C/[C@@H](O)[C@@H](N)CO` was run?
Its Potency is inconclusive [inhibitor, full curve, poor fit].

How did the “activity change, negative = inhibition” value turn out when `O=C1NCCCc2c1oc1ccc(O)cc21` was run?
Its value is inactive: -6.12%.

Which Potency does the source give for `COc1ccc2cc3cc(C(=O)NCCCN4CCOCC4)oc3nc2c1` here?
Its Potency is inconclusive [activator, partial curve].

For `CCN(CC)c1ccc2ccc(=O)oc2c1`, which Potency is on record?
The Potency was inconclusive [activator, single point].

How did the Potency turn out when `CCOC(=O)N1CCN(CC(=O)Nc2ccc([N+](=O)[O-])cc2C(=O)Nc2ccccc2F)CC1` was run?
Its Potency is inconclusive [inhibitor, single point].

`C[C@]12C[C@@](C)(C=C1/C=C/c1ccc(C(F)(F)F)cc1)C(=O)C[C@H]2c1ccc(C(F)(F)F)cc1` was tested. Which “activity change, negative = inhibition” value did it give?
The value was inactive: 1.82%.

For `CC(=O)Nc1cc2ccc(OC(C)=O)cc2oc1=O`, which Potency is on record?
The Potency was inconclusive [activator, partial curve].

`CCN(CC)CCCCNc1ncc2cc(-c3cc(OC)cc(OC)c3)c(NC(=O)NC(C)(C)C)nc2n1` was tested. Which Potency did it give?
Its Potency is inconclusive [activator, partial curve].

`CCOc1cc(/C=N/NC(=O)COc2ccc(Cl)cc2)ccc1OS(=O)(=O)c1ccccc1` was tested. Which “activity change, negative = inhibition” value did it give?
Its value is inactive: 3.2%.

With `C[n+]1ccc(/C=C/c2ccc3ccccc3c2)cc1` as the compound, how does the Potency read?
The Potency was inconclusive [activator, partial curve].

`CC(N=C(NC#N)Nc1ccncc1)C(C)(C)C` (stereo not given) was tested. Which Potency did it give?
The Potency was inconclusive [inhibitor, partial curve].

With `O=C1c2ccsc2SCCN1Cc1c(Cl)cccc1Cl` as the compound, how does the “activity change, negative = inhibition” value read?
The value was inactive: 4.15%.

How did the Potency turn out when `O=c1c(-c2ccc(Cl)cc2)nc2cnc(N3CCNCC3)nc2n1Cc1cccs1` was run?
Its Potency is inconclusive [activator, partial curve].

For `CC1CCCCN1CCCNC(=O)c1ccc2c(=O)n(CCc3ccccc3)c(=O)[nH]c2c1` (stereo not given), which Potency is on record?
The Potency was inconclusive [activator, partial curve].

With `CC[C@H](C)[C@H](NC(=O)CNC(=O)[C@H](CC(C)C)NC(=O)[C@H](CC(C)C)NC(=O)[C@H](CCC(N)=O)NC(=O)[C@H](CCC(N)=O)NC(=O)[C@H](CC(=O)O)NC(=O)[C@H](CCCCN)NC(=O)[C@H](CC(C)C)NC(=O)[C@H](Cc1ccc(O)cc1)NC(=O)[C@H](CCCNC(=N)N)NC(=O)[C@H](CCC(=O)O)NC(=O)[C@@H](NC(=O)[C@H](C)NC(=O)[C@H](CC(C)C)NC(=O)[C@@H](NC(=O)[C@@H](N)CCCNC(=N)N)[C@@H](C)CC)C(C)C)C(=O)N[C@@H](Cc1c[nH]c2ccccc12)C(=O)NCC(=O)N[C@@H](CS)C(=O)N[C@@H](CO)C(=O)O` as the compound, how does the “activity change, negative = inhibition” value read?
The value was inactive: 1.94%.

With `Clc1ccc(OCc2nn3c(C4CCCCC4)nnc3s2)cc1` as the compound, how does the “activity change, negative = inhibition” value read?
Its value is inactive: -8.11%.

`CC(=O)OC[C@@H]1O[C@H](C/C=N\O[C@@H](C)CN2CCCc3nc(C)c(C)cc32)C=C[C@@H]1OC(C)=O` was tested. Which activity change, negative = inhibition did it give?
The activity change, negative = inhibition was inactive: 8.21% [at 17.5 µM].

`O=C(CSc1nc2c(sc3ccccc32)c(=O)n1CCCN1CCCC1)NCc1ccccc1` was tested. Which Potency did it give?
Its Potency is inconclusive [activator, partial curve].

How did the Potency turn out when `CCOCCCn1c(=NC(=O)c2cccs2)c(C#N)cc2c(=O)n3cccc(C)c3nc21` was run?
The Potency was inconclusive [activator, partial curve].

`C#CCn1c(=O)c2c(ncn2C)n(C)c1=O` was tested. Which Potency did it give?
Its Potency is inconclusive [inhibitor, full curve, poor fit].

`C/C(Cl)=C\Cn1c(O)c(N=NC(N)=S)c2cc(Br)ccc21` was tested. Which “activity change, negative = inhibition” value did it give?
The value was inactive: -2.3%.

For `Cc1cc(C)cc(C(=O)N2CCCCCC2)c1`, which “activity change, negative = inhibition” value is on record?
Its value is inactive: 6.67%.

For `CCCCNS(=O)(=O)c1ccc2nc(-c3cccs3)cc(C(=O)NCC(OC)OC)c2c1`, which Potency is on record?
The Potency was inconclusive [activator, partial curve].

With `CCN1CCN(c2cc3c(nn2)Oc2ccccc2N3C)CC1` as the compound, how does the Potency read?
Its Potency is inconclusive [activator, partial curve].

`CCNC(=O)/C(C#N)=C/c1c(N2CCN(Cc3ccc4c(c3)OCO4)CC2)nc2c(C)cccn2c1=O` was tested. Which Potency did it give?
Its Potency is inconclusive [activator, full curve, poor fit].

For `COc1ccc(-c2cc(=O)c3ccccc3o2)cc1OC`, which Potency is on record?
The Potency was inconclusive [activator, partial curve].

With `COC(=O)C1=CN(CC2CCCO2)C=C(C(=O)OC)C1c1cccc(O)c1` (stereo not given) as the compound, how does the Potency read?
Its Potency is inconclusive [activator, single point].

Which Potency does the source give for `COc1ccccc1NC(=O)CSc1nc(O)cc(=O)n1-c1ccccc1OC` here?
Its Potency is inconclusive [inhibitor, single point].

For `Fc1ccc(/C=C\c2nccc3c2[nH]c2ccccc23)cc1`, which Potency is on record?
Its Potency is inconclusive [activator, partial curve].

How did the “activity change, negative = inhibition” value turn out when `Cc1ccccc1-c1nc2sc3c(c2c(=O)o1)CCC3` was run?
The value was inactive: 2.48%.

`C=CCn1c(-c2csc3c2CCC(C)C3)n[nH]c1=S` (stereo not given) was tested. Which “activity change, negative = inhibition” value did it give?
The value was inactive: -7.41%.

With `CN1CCN(c2ncc3nc(-c4ccccc4)c(=O)n(-c4ccccc4)c3n2)CC1` as the compound, how does the Potency read?
The Potency was inconclusive [activator, single point].

`CC1CCCN(CCCNC(=O)c2coc3nc4ccccc4nc23)C1` (stereo not given) was tested. Which Potency did it give?
The Potency was inconclusive [activator, partial curve].

How did the “activity change, negative = inhibition” value turn out when `CCn1c(=O)c([N+](=O)[O-])c(NCCc2ccc(OC)c(OC)c2)c2ccccc21` was run?
Its value is inactive: 5.1%.

With `COc1ccc(NC(=O)CN(c2ccc([N+](=O)[O-])cc2)S(=O)(=O)c2ccccc2)c(OC)c1` as the compound, how does the Potency read?
Its Potency is inconclusive [inhibitor, single point].

With `COc1ccccc1C1CC(c2ccco2)=NN1c1ccccc1` (stereo not given) as the compound, how does the Potency read?
The Potency was inconclusive [activator, partial curve].

With `COc1ccc(-c2cc(C(=O)O)c3sc(N4CCCCC4)nc3n2)cc1OC` as the compound, how does the Potency read?
The Potency was inconclusive [activator, partial curve].

How did the “activity change, negative = inhibition” value turn out when `CC/C=C\C/C=C\C/C=C\C/C=C\C/C=C\C/C=C\CCC(N)=O` was run?
The value was inactive: -11.2%.

Which Potency does the source give for `COC(=O)c1c(N)n(CCCN2CCOCC2)c2nc3ccccc3nc12` here?
The Potency was inconclusive [activator, partial curve].

With `O=C(Cn1cnc2ccccc2c1=O)NCCC(=O)N1CCN(c2ccccc2)CC1` as the compound, how does the Potency read?
The Potency was inconclusive [inhibitor, partial curve].
